Screen size: about 48,000 compounds; about 120 (0.25%) were called active. About 4% were inconclusive and are not listed. The call rests on the fitted dose curve; in most records, active means well fitted activation curve with a large enough effect; inconclusive means small, poorly fitted or top-dose-only effect, or another doubt; inactive means no such curve, though single readings can be large or run the other way. The list shows a part of the results.
Experiment: Primary qHTS for Identification of Small Molecule Activators of Huntingtin-Antisense Promoter Activity; further: nearly all actives have a fitted effect of over 55% in size
Settings: HEK293 HTT-AS promoter firefly luciferase reporter, 24 h; series mostly up to 57.5 µM; activity change, positive = activation: at the top concentration
Procedure, shortened: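 HEK293 cells carrying firefly luciferase reporters were seeded at 2,500 per well in Opti-MEM and cultured for 24 h. They were then treated with compounds at up to 57.5 uM final for 24 h at 37 degrees C before Dual-Glo luminescence readout.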

Activity change, positive = activation, inactive:
Cc1cccc(N2CCN(c3ncnc4c3nc3n4CCCCC3)CC2)c1C -32.7%
CCOc1ccc(NC(=O)c2ccc(NC(=O)N3CCSc4ncccc43)cc2)cc1 -20.2%
COC(=O)c1ccccc1NC(=O)c1ccc(COc2ccccc2Cl)o1 18%
COc1ccc(C2CC(=O)c3cc(-c4nc(-c5cccc(Cl)c5)cs4)c(=O)[nH]c3C2)cc1OC (stereo unspecified) -6.78%
NC(N)=NC(N)=NCCc1ccccc1
CCc1ccccc1N1C(=O)N(Cc2ccc(C#N)cc2)c2ccccc2S1(=O)=O -37.8%
CC(C)Sc1oc(-c2cccs2)nc1S(=O)(=O)c1ccc(Cl)cc1 -7.62%
Cc1ccc(CNC(=O)c2ccc(Cn3c(=O)c4ccccc4n(CC(=O)Nc4ccc(C)cc4C)c3=O)cc2)cc1 -2.18%
CCOc1ccc(OCC)c(NS(=O)(=O)c2cc(-c3cc(C)no3)ccc2C)c1 -7.38%
CCOc1ccc(S(=O)(=O)NCCc2sc3nc(-c4ccc(F)cc4)nn3c2C)cc1 -30.5%
CCOc1ccc(CCNC(=O)c2cn(CC)c3ccc(S(=O)(=O)N4CCc5ccccc5C4)cc3c2=O)cc1OCC -19.1%
O=C(Nc1ccccc1-c1cn2c(CN3CCNCC3)csc2n1)c1cnc2ccccc2n1 -17%
CCn1c2ccccc2c2cc(CN3CCN(Cc4ccccc4F)CC3)ccc21 -18.3%
CCOc1ccccc1NC(=O)C(=O)NCCc1sc(-c2cccc(F)c2)nc1C -6.34%
COc1ccc(-c2cc(C(F)(F)F)nc(S(=O)(=O)CCCC(=O)Nc3cccc(O)c3)n2)cc1OC -41.7%
CCc1ccc(NCc2cc3cc4c(cc3n(CC(=O)Nc3ccc(C)cc3)c2=O)OCO4)cc1 -7.65%
CCOc1ccc(NC(=O)C2CCCN(S(=O)(=O)c3cccc4nonc34)C2)cc1 (stereo unspecified) -3.83%
CC(=O)c1ccc(NC(=O)CSc2nnc3ccc(-c4ccc(Cl)cc4)nn23)cc1 -0.305%
Cc1oc2ncnc(N3CCCCC3)c2c1C(=O)N1CCN(c2cccc(C(F)(F)F)c2)CC1 -32.7%
CCOc1ccc(NC(=O)NCc2c(-n3cccc3)sc3c2CCCC3)cc1 -3.69%
O=C(NCc1ccc2c(c1)CCN2C(=O)c1ccc(F)cc1)c1cc2ccccc2[nH]1 -6.52%
COc1ccc(-c2[nH]c3ccccc3c2SCCNC(=O)c2cc(OC)c(OC)c(OC)c2)cc1 -38.5%
COc1ccccc1CNC(=O)CCC(=O)N1CC2CCCN2c2ccccc21 (stereo unspecified) 1.52%
c1ccc(CNc2nc3c(-c4ccccc4)nnn3c3ccccc23)cc1 17.5%
COc1ccc(SCc2cc(=O)c3cc(Cl)ccc3[nH]2)cc1 -37.6%
Cc1cccc(C)c1OCCn1c(C2CC(=O)N(c3cccc(Cl)c3)C2)nc2ccccc21 (stereo unspecified) -53.6%
COc1cccc(NC(=O)C2CCCN(S(=O)(=O)c3c(C)nn(C)c3C)C2)c1 (stereo unspecified) -23.2%
O=C(Cc1ccc(Cl)cc1)Nc1ccc2nn(-c3ccc(Cl)cc3)nc2c1 0.497%
CCCC1=Nc2cc(C(=O)NC(C)c3ccccc3)ccc2Sc2ccc(C)cc21 (stereo unspecified) -28.9%
Cc1nn(C(=O)c2c(F)cccc2F)c(C)c1S(=O)(=O)N1CCOCC1 -7.32%
O=C(CCN1N=C(c2ccccc2)CCC1=O)NCCc1ccc(Cl)cc1 -15.2%
COc1ccc(CCNC(=O)c2ccc3c(c2)N(Cc2ccccc2F)C(=O)c2ccccc2S3(=O)=O)cc1OC 6.2%
O=C(NCCc1ccccc1)c1cc(S(=O)(=O)N2CCCCC2)c[nH]1 -23.3%
CCOC(=O)c1cnc2c(ccc3ccccc32)c1Nc1cccc(OC)c1 -17.6% [at 11.5 µM, percent change from vehicle, -100% = no light]
Cc1ccc(CN(Cc2ccco2)C(=O)COc2cc(C)c(Cl)c(C)c2)cc1 -27.3%
Cc1cccc(N2CCN(C(=O)c3cc4c(=O)oc5ccccc5c4s3)CC2)c1C -13.9%
Cc1cc(C(F)F)n2nc(C(=O)Nc3c(C)cccc3C)nc2n1 -2.25%
CCN(CC)c1cc(C)c2cc(NC(=O)c3ccccc3OC)ccc2n1 -3.04%
Cc1cc(C)c(NC(=O)CSc2ccc(-c3sc(-c4ccccc4)nc3C)nn2)c(C)c1 -7.63%
Cc1cc(C)c(NC(=O)CSc2nc3nc(C)cc(C)n3n2)c(C)c1 -15.3%
CCCCn1c(SCC(=O)NCCCOC)nc2c(sc3ccccc32)c1=O -5%
CCn1c(=O)c2sccc2n2c(CCCC(=O)N3CCN(c4cc(Cl)ccc4C)CC3)nnc12 6.32%
COc1ccc(-c2nnc(SCC(=O)NCc3ccc(C)cc3)nc2-c2ccc(OC)c(OC)c2)cc1OC -35.5%
O=C(CSc1nc(-c2ccc(F)cc2)[nH]c1-c1ccccc1)NCC1CCCO1 (stereo unspecified) -25.2%
COc1ccccc1N1CCN(c2ncccc2-c2nc(-c3ccc(Cl)cc3)no2)CC1 5.54%
CCCCOc1cccc(C2c3c(oc4ccccc4c3=O)C(=O)N2c2ccccn2)c1 (stereo unspecified) -13.5%
CCc1ccc(C(=O)c2cn(CC(=O)Nc3ccc(OC)c(OC)c3)c3ccc(C)cc3c2=O)cc1 -27.6%
CC1CCN(C(=O)CSc2nc(-c3ccccc3)no2)CC1 7.29%
COc1cc(C(=O)N2CCC(c3nc4ccccc4o3)CC2)cc(OC)c1OC -8.88%
Cc1c(NS(=O)(=O)c2ccccc2)cc(C(C)C)c(O)c1S(=O)(=O)c1ccc(Cl)cc1 -46.8%
COc1ccc(C(c2c(O)cc(C)n(Cc3ccco3)c2=O)N2CCCCC2)cc1OC (stereo unspecified) 5.98%
C(=C\c1ccccc1)/CN1CCN(C(c2ccccc2)c2ccccc2)CC1 -12.3%
CCN(CC)CC(=O)Oc1ccc(NC(C)=O)cc1 2.27%
COc1cc(Cl)c(C)cc1NC(=O)c1ccc2c(Cl)c3c(nc2c1)CCC3 8.95%
CCOc1cccc(CC(=O)N2CCc3c([nH]c4ccccc34)C2c2ccc(Cl)cc2)c1OCC (stereo unspecified) -13.3%
COc1ccc(S(=O)(=O)N2CCC(Oc3ccc(-n4cnnn4)cc3)CC2)cc1OC -33.8%
CCOc1ccc(C(=O)c2cn(Cc3ccccc3OC)c3ccc(F)cc3c2=O)cc1 -8.61%
Oc1c(C(c2ccccc2Cl)N2CCCC2)sc2nc(-c3ccco3)nn12 (stereo unspecified) -13.2%
CCOc1ccc(N(CC(=O)NCc2ccccc2Cl)S(=O)(=O)c2c(C)[nH]c(=O)[nH]c2=O)cc1 24.4% [at 11.5 µM, percent change from vehicle, -100% = no light]
CC(=O)Nc1ccc(NC(=O)CSc2nc3ccccc3nc2N2CCOCC2)cc1 -16.6%
CCc1ccc(NC(=O)CN(c2ccc(OC)cc2)S(=O)(=O)c2c(C)[nH]c(=O)[nH]c2=O)cc1 7.03% [at 11.5 µM, percent change from vehicle, -100% = no light]
COc1ccc(-n2c(CC3C(=O)N(C)c4ccc(C)cc43)nc3ccccc3c2=O)cc1 (stereo unspecified) -2.14%
COc1ccc(CCNc2ncnc3c2cnn3-c2ccc(C)cc2)cc1 -1.07%
CN1C(=O)c2ccccc2Sc2ccc(NC(=O)COc3ccc(F)cc3)cc21 -42.6%
Fc1ccc(CN2CCc3nc(Nc4ccccc4)ncc3C2)cc1F -11.7%
Cc1ccccc1C(=O)Nc1nnc(S(=O)(=O)N2c3ccccc3CC2C)s1 (stereo unspecified) -89.6%
O=C(NCc1ccco1)c1ccc2c(c1)N(Cc1cccc(Cl)c1)C(=O)c1ccccc1S2(=O)=O -22.3%
COc1ccc(-c2noc(CNC(=O)c3ccco3)n2)cc1 -6.41%
Cc1ccc(CNC(=O)CSc2cc(C)[nH]c(=O)n2)cc1 -8.47%
Cc1nn(-c2ccccc2)c2nc(C3CC3)cc(C(=O)Nc3ccccc3F)c12 -33.1%
Cc1cccc(NC(=O)CCc2c(C)nc3nc(CNC(=O)c4cccc(F)c4)nn3c2C)c1 -1.53%
Cc1oc(-c2ccccc2)nc1CCC(=O)c1ccc(CC2SC(=O)NC2=O)cc1 (stereo unspecified) -27.7%
COc1ccc(Cn2c(SCc3ccc(C(=O)NC4CCCC4)cc3)nc3cccnc32)cc1 -29.9%
COc1ccc(-c2noc(CSc3nnc(-c4ccncc4)n3-c3ccc(C)cc3)n2)cc1OC -10.6%
O=C(Cn1c(=O)n(Cc2ccc3c(c2)OCO3)c(=O)c2oc3ccccc3c21)Nc1ccc(F)cc1 -13.4%
CCOc1ccccc1NC(=O)c1c(NC(=O)c2ccccc2)sc2c1CCCC2 -15.1%
CCOc1ccccc1CNC(=O)c1cnc2sc(N3CCCCCC3)nn2c1=O -29.5%
O=C(Cn1cc(SCc2cccc(Cl)c2)c2ccccc21)N1CCCCCC1 -5.26%
CCc1ccc(Oc2c(C(F)(F)F)oc3c(CN4CCN(C)CC4)c(O)ccc3c2=O)cc1 -12.1%
CC(C)(C)c1ccc(-c2nc3cc(NC(=O)c4cccc(Br)c4)ccc3o2)cc1 -4.42%
CCc1ccc(S(=O)(=O)NCCc2csc3nc(-c4ccccc4)nn23)s1 -31%
COc1ccc(-n2ccn(CC(=O)NCCc3ccccc3)c(=O)c2=O)cc1OC 2.05%
O=C(NCCc1csc2nc(-c3ccc(F)cc3)nn12)c1cccc(C(F)(F)F)c1 -29.2%
COc1cccc(CNC(=O)Cn2ncc3c4ccccc4n(Cc4ccccc4)c3c2=O)c1 -2.17%
COc1ccccc1CN(Cc1ccco1)c1cnc(S(C)(=O)=O)nc1C(=O)Nc1cc(C)ccc1C -17.3%
COc1cccc(C(=O)NCc2nc(-c3ccccc3)no2)c1OC 0.0159% [at 11.5 µM, percent change from vehicle, -100% = no light]
O=S(=O)(O)c1ccc(O)cc1 -0.74%
Cc1ccc(C)c(NC(=O)c2ccc3nc(CCc4ccccc4)oc3c2)c1 17.5%
O=C(CSc1n[nH]c(-c2ccccc2Cl)n1)N1CCN(c2ccccc2)CC1 -9.85%
CCOC(=O)CNS(=O)(=O)c1cc(-c2nnc(Nc3cccc(O)c3)c3ccccc23)ccc1C -18.8%
CCCc1ccc(C2Sc3ccccc3NC3=C2C(=O)c2ccccc23)cc1 (stereo unspecified) -53.5%

From PubChem BioAssay AID1508624 (National Center for Advancing Translational Sciences (NCATS), 2021)
